# Measurements from PubChem BioAssay AID651820 (National Center for Advancing Translational Sciences (NCATS), 2012).
# The whole screen tested about 340,000 compounds, of which about 12,000 (3.5%) were called active. This list was built around the results that the source calls inconclusive (neither active nor inactive); the mix of calls is not that of the screen. The call rests on the fitted dose curve; in most records, active means well fitted inhibition curve with a large enough effect; inconclusive means small, poorly fitted or top-dose-only effect, or another doubt; inactive means no such curve, though single readings can be large or run the other way. No potency is given beside an inconclusive call; the fits are too rough.
# Test: qHTS Assay for Inhibitors of Hepatitis C Virus (HCV)
# Details: Huh7.5.1 HCVcc-Cre (HCVcc is cell-culture hepatitis C virus) infection, luciferase reporter, 44 h; series mostly up to 41.8 µM
# Procedure, shortened: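 1,000 cells/well; 4 h culture; + compound; + HCVcc-Cre (~0.5 moi); 44 h; luciferase substrate, RT 15 min; read 15 sec.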
# Potency means the concentration at half of the fitted maximal effect; tags describe the fitted curve by direction and shape.
row,SMILES,Potency
1,Cc1ccc(C(C#N)c2ccc3c(C(F)(F)F)cc(C(F)(F)F)nc3n2)cc1 (centres undefined),active: 10 µM
2,CNC[C@H](Cc1cccc2ccccc12)NC[C@H](CCSC)NCC1CCC(C(C)(C)C)CC1 (some centres undefined),"inconclusive [inhibitor, single point]"
3,CCOc1c(Cl)cc(CNCCc2c[nH]c3ccccc23)cc1OC,active: 22.4 µM
4,COc1ccc(CCNCc2ccc(OCc3ccc(Cl)nc3)c(OC)c2)cc1OC,"inconclusive [inhibitor, partial curve, poor fit]"
5,O=C(NNC(=O)c1ccccc1O)c1ccc(Br)cc1,"inconclusive [inhibitor, single point]"
6,CC1CCCN(C(=O)Cc2cn(Cc3cccc(Cl)c3)c3ccccc23)C1 (centres undefined),"inconclusive [inhibitor, single point]"
7,CCOC(=O)c1ccc(Nc2nc(C)nc3c2nnn3Cc2ccccc2)cc1,"inconclusive [inhibitor, partial curve]"
8,O=C1NC(=Nc2ccccc2)/C(=C/c2ccco2)S1,active: 11.2 µM
9,Cc1cn(CC(=O)N[C@H](C)c2cccc3ccccc23)c(=O)[nH]c1=O,inactive
10,CCCn1c(CNc2ccccc2O)nc2ccccc21,"inconclusive [inhibitor, single point]"
11,CC1CCN(CCCNC(=O)c2n[nH]c(=O)c3ccccc23)CC1,inactive
12,Cn1c(=O)n(Cc2ccccc2)c(=O)c2c1nc1n2CCS1,"inconclusive [inhibitor, single point]"
13,COc1cc(/C=C/C(=O)OCC(=O)NCCCc2ccccc2)ccc1O,inactive
14,C=CCn1c(-c2ccc(OC)cc2)csc1=Nc1c(C)n(C)n(-c2ccccc2)c1=O,"inconclusive [inhibitor, single point]"
15,CCOc1ccccc1NC(=O)Cn1nnc(C(=O)NCCc2ccc(OCC)c(OCC)c2)c1N,"inconclusive [inhibitor, full curve]"
16,Nc1nc(Nc2cccc(F)c2)nc(NCc2ccco2)c1[N+](=O)[O-],"inconclusive [inhibitor, single point]"
17,CC1(C)C(=O)Nc2ccccc2N1C(=O)Cn1ncc(Cl)c(Cl)c1=O,"inconclusive [inhibitor, single point]"
18,COc1ccccc1N1CCN(C(=O)CNC(=O)c2ccc(Cl)cc2Cl)CC1,"inconclusive [inhibitor, single point]"
19,Cc1cc(=O)[nH]c2ccc(S(=O)(=O)NCc3ccccc3)cc12,inactive
